According to paper PMC4336329 (PLoS ONE, 2015):
Out of some 310,000 compounds screened, about 14,000 (4.5%) showed an effect of 50% or more. Effects have a minus sign here. Some of the results follow.

molecular target: human ether-à-go-go-related gene (hERG) potassium channel (human, UniProt Q12809); assay: primary screen, population patch clamp on CHO cells stably expressing hERG
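Note: peak tail current of the secondary pulse compared with the same well before compound.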

Sequence of human ether-à-go-go-related gene (hERG) potassium channel (Q12809 whole entry, looked up): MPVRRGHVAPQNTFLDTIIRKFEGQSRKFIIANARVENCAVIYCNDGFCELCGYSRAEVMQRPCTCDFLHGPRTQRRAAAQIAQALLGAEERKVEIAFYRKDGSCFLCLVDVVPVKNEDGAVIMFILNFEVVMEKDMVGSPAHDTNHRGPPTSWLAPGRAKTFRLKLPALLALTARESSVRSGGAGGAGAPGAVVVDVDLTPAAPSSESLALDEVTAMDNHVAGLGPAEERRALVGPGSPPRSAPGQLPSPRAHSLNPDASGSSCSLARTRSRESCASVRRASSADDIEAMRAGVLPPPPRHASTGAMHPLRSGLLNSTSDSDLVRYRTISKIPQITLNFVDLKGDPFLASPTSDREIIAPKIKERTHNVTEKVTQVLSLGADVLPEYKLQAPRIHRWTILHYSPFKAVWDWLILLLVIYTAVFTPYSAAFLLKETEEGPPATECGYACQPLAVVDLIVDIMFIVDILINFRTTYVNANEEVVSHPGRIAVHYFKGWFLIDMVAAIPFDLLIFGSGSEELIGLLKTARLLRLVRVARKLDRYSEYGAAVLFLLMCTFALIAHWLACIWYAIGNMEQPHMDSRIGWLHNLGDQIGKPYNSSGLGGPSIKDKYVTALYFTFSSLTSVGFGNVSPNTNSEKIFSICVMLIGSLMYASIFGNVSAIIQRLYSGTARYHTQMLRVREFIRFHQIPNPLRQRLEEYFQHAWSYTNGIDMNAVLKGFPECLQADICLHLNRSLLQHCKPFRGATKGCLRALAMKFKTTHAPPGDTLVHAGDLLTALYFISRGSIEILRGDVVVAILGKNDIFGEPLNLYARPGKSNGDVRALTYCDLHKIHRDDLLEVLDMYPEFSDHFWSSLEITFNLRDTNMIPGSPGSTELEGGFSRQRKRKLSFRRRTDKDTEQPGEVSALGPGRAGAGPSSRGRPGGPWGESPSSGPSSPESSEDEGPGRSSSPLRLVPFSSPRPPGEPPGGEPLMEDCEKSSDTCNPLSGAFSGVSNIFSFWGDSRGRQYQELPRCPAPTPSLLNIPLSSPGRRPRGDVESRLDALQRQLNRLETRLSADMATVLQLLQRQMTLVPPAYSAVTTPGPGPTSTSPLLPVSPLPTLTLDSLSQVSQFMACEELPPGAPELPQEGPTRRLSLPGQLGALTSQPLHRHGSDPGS

| Structure (SMILES) | hERG current change (%, negative = inhibition) at 10uM |
| --- | --- |
| CC(Oc1ccccc1)C(=O)NC1CCCCCCC1 (stereo not drawn) | -2.77% |
| O=C(Nc1cccc(-c2cn3ccsc3n2)c1)c1ccccc1 | -16.5% |
| C/C(=N\NC(=O)c1ccco1)c1ccc(-c2ccccc2)cc1 | -2.72% |
| COc1cc(F)ccc1S(=O)(=O)N1CCN(c2ccccc2)CC1 | -18.3% |
| N/C(=N/OCC(=O)Nc1cccc2ccccc12)c1nonc1N | -14% |
| CC(C)(C)N(NC(=O)Nc1ccccc1)C(=O)c1ccccc1 | 12.9% |
| Cc1ccc(C)c(Oc2coc3cc(O)ccc3c2=O)c1 | -24.1% |
| COc1cc(/C=N/NC(=O)C(=O)NCC2CCCO2)ccc1OCC(=O)N1CCOCC1 (stereo not drawn) | 21.5% |
| O=C1c2ccccc2C(=O)N1n1c(=O)[nH]c2ccccc2c1=O | 14.9% |
| COc1nccnc1NS(=O)(=O)c1ccc(NC(=S)NC(=O)c2ccccc2)cc1 | 10.2% |
| Cc1c(C(=O)OCC(C)C)[nH]c2c1C(=O)CC(c1cccs1)C2 (stereo not drawn) | 14.9% |
| Cc1ccc(C(C)C)cc1OCC(=O)N/N=C/c1ccc2c(c1)OCCO2 | -4.93% |
| Cc1ccc(CNC(=O)CCNS(=O)(=O)c2cccs2)cc1 | -11.9% |
| COc1ccc(C(=O)NCCNC(C)=O)cc1S(=O)(=O)NCc1ccc(Cl)cc1 | 9.85% |
| CSc1ccc(Cl)c(C(=O)NCc2ccco2)c1 | 5.53% |
| O=C(Cc1ccc(Br)cc1)NCCc1ccc(F)cc1 | 11.3% |
| CC(NC(=S)NC1CCCCC1)c1ccc(C(C)(C)C)cc1 (stereo not drawn) | 10.6% |
| Cc1cc(Oc2ccc(Br)cc2)nc(SCC(=O)c2ccccc2)n1 | 1.53% |
| COc1ccc(NC(=O)Nc2ccccc2SC)c(OC)c1 | 25.7% |
| O=C(CCCN1C(=O)/C(=C/c2ccccc2Cl)SC1=S)Nc1cccnc1 | -1.14% |
| COc1ccc(C(=O)Nc2nc3c(s2)Cc2cc(OC)ccc2-3)cc1 | -7.05% |
| O=C(O)C1CCCCC1C(=O)OCCCCOC(=O)C1CCCCC1C(=O)O (stereo not drawn) | 5.59% |
| Cc1cc(N2CCCC2=O)ccc1S(=O)(=O)Nc1c(C)nn(C)c1C | 12.3% |

| Structure (SMILES) | hERG current change (%, negative = inhibition) at 10uM |
| --- | --- |
| Cc1cc(-c2ccccc2)n2nc(C)c(C#N)c2n1 | 16.9% |
| O=C(Nc1ccc(Cl)c(C(F)(F)F)c1)C(=O)N1CCCCC1 | -1.61% |
| O=C(C(=C1NCCN1)n1cncn1)c1ccccc1 | 14.4% |
| O=C(NCc1ccccc1)C1=C[C@H](c2ccc(Br)cc2)C[C@H](OCc2ccc(CO)cc2)O1 | 3.56% |
| COc1ccc(/C(O)=C2/C(=O)C(=O)N(Cc3cccnc3)C2c2ccncc2)cc1F (stereo not drawn) | 23.1% |
| COc1ccc(NC(=O)CCCNS(=O)(=O)c2cccs2)cc1 | 2.91% |
| O=C(CSc1nc2nccnc2c(=O)n1Cc1cccs1)Nc1ccccc1F | -69.1% |
| Nn1c(C2CCC2)nc2ccccc2c1=O | 0.704% |
| Cc1ccc(-c2csc(N3CCN(c4cc5c(cc4Cl)nc(C)n5CCN4CCCCC4)CC3)n2)cc1 | -6.33% |
| O=C1CCCC1C(=O)Nc1ccc2ccccc2c1 (stereo not drawn) | 9.48% |
| CCCCNC(=O)CSc1nc2cc3c(cc2c(=O)n1Cc1ccco1)OCO3 | -10.8% |
| COc1nc(N(C)C)nc(N(C#N)CCOC(C)=O)n1 | 7.17% |
| C=CCOc1ccc(CN(C)CC(=O)Nc2ccc3c(c2)CCC3)cc1.O=C(O)C(=O)O | 5.75% |
| O=C(Cn1cnc2ccccc21)Nc1cc(C(F)(F)F)ccc1N1CCOCC1 | -17.7% |
| COc1ccc(-c2nc3n(n2)C(=O)CC(c2ccco2)S3)cc1 (stereo not drawn) | 1.61% |
| COc1ccc(C(=O)NCC(=O)N/N=C/c2cccc(OC(=O)c3ccco3)c2)cc1OC | 21.6% |
| O=C(c1ccc(F)cc1)N(Cc1cccs1)C1CCS(=O)(=O)C1 (stereo not drawn) | 4.97% |
| Cn1nc([N+](=O)[O-])nc1N1CCN(c2ccc(F)cc2)CC1 | -31.3% |
| O=C(Cn1cc([N+](=O)[O-])cn1)Nc1ccccn1 | 16.1% |
| Cc1ccc(NC(=O)[C@@H](NC(=O)N2C[C@H]3C[C@@H](C2)c2cccc(=O)n2C3)C(C)C)cc1 | -0.363% |
| CCOCc1nnc(NC(=O)c2cc(OC)c(OC)cc2[N+](=O)[O-])s1 | 20.8% |
| Oc1ccccc1N1CCN(CC(O)COCc2ccccc2Cl)CC1 (stereo not drawn) | -42% |
